Experimental data from patent US8822645B2, “Prostaglandin E2 dual variable domain immunoglobulins and uses thereof” (AbbVie Inc., priority 2008, dated 2014).
Read-outs that look alike come from different tables or passages of the source.

How the values were obtained:
[1] = test system: PGE2 / human EP4 receptor in HEK293 Gα16 cells; experiment: EP4 bioassay (Ca++ flux, neutralization of PGE2); assay type: cell-based
Protocol: The ability of anti-PGE2 antibodies and anti-PGE2 containing DVD-Ig molecules to inhibit the cellular response of PGE2 was determined in a Ca++ flux assay in HEK293 Gα16 cells stably transfected with human EP4 receptor. Cells were plated in black/clear poly-D-lysine plates, (Corning #3667, Corning, N.Y.) and incubated with Ca++-sensitive dye (Molecular Devices) for 90 minutes. Stock PGE2 (in 200 proof ethanol) was diluted with FLIPR buffer (containing 1×HBSS (Invitrogen, Carlsbad, Calif.), 20 mM HEPES (Invitrogen, Carlsbad, Calif.), 0.1% BSA (Sigma, St. Louis, Mo.) and 2.5 mM Probenecid (Sigma, St. Louis, Mo.)). […] A dose response of PGE2 was done by a serial titration of PGE2 and was determined using FLIPR1 or Tetra (Molecular Devices). EC50 was determined using GraphPad Prism 5 (GraftPad Software, La Jolla, Calif.). […] Ca++ flux was monitored using FLIPR1 and data was analyzed using GraphPad Prism 5.
The ability of anti-PGE2 antibodies and anti-PGE2 containing DVD-Ig molecules to inhibit the cellular response of PGE2 was determined in a Ca++ flux assay using stably transfected human EP4 in HEK293 Gα16 cells. […] A dose response of PGE2 was done by a serial titration of PGE2 and was determined using FLIPR1 or Tetra (Molecular Devices). EC50 was determined using GraphPad Prism 5. […] Ca++ flux was monitored using FLIPR1 and data was analyzed using GraphPad Prism 5.

[2] = PGE2-biotinamide ELISA (PGE2 binding)
Protocol: Enzyme linked immunosorbent assays to screen for anti-PGE2 antibodies or anti-PGE2 containing DVD-Ig molecules that bind prostaglandin E2 were performed as follows. ELISA plates (Costar 3369, Corning, N.Y.) were coated with 50 μl of anti-host Fc IgG (Sigma, St. Louis, Mo.) at 2 μg/ml in PBS (Invitrogen Carlsbad, Calif.). Following an overnight incubation at 4° C., the plate was blocked with 200 μl Superblock (Pierce #37535, Rockford, Ill.). […] Plates were read at 450 nm on a Molecular Devices Spectramax plate reader (Sunnyvale, Calif.). EC50 was determined using GraphPad Prism 5 (GraphPad Software, La Jolla, Calif.) (FIG. 2).
ELISA plates (Costar 3369, Corning, N.Y.) were coated with 50 μl of anti-host Fc IgG (Sigma, St. Louis, Mo.) at 2 μg/ml in PBS (Invitrogen, Carlsbad, Calif.). […] Plates were read at 450 nm on a Molecular Devices Spectramax plate reader (Sunnyvale, Calif.). EC50 was determined using GraphPad Prism 5 (GraphPad Software, La Jolla, Calif.).

B1: DVD155: DVD-Ig construct listed in Table 4 (antibody)
VH: EVQLVQSGAEVKKPGASVKVSCKASGYTFTKYWLGWVRQAPGQGLEWMGDIYPGYDYTHYNEKFKDRVTLTTDTSTSTAYMELRSLRSDDTAVYYCARSDGSSTYWGQGTLVTVSSASTKGPEVQLVESGGGLVQPGGSLRLSCAASGFTFSNYWMNWVRQAPGKGLEWVAAINQDGSEKYYVGSVKGRFTISRDNAKNSLYLQMNSLRVEDTAVYYCVRDYYDILTDYYIHYWYFDLWGRGTLVTVSS
VL: DVLMTQTPLSLPVTPGEPASISCTSSQNIVHSNGNTYLEWYLQKPGQSPQLLIYKVSNRFSGVPDRFSGSGSGTDFTLKISRVEAEDVGVYYCFQVSHVPYTFGGGTKVEIKRTVAAP[about 100 residues not written out]
EC50 ([1]; PGE2 VD in N-terminal position, read-out: N-terminal VD PGE2 Neutralization EC50): 0.023 nM | EC50 ([2]; PGE2 VD in N-terminal position, read-out: Direct Bind ELISA N-terminal VD EC50): 1.44 nM

B2: DVD156: DVD-Ig construct listed in Table 4 (antibody)
VH: EVQLVESGGGLVQPGGSLRLSCAASGFTFSNYWMNWVRQAPGKGLEWVAAINQDGSEKYYVGSVKGRFTISRDNAKNSLYLQMNSLRVEDTAVYYCVRDYYDILTDYYIHYWYFDLWGRGTLVTVSSASTKGPEVQLVQSGAEVKKPGASVKVSCKASGYTFTKYWLGWVRQAPGQGLEWMGDIYPGYDYTHYNEKFKDRVTLTTDTSTSTAYMELRSLRSDDTAVYYCARSDGSSTYWGQGTLVTVSS
VL: [about 100 residues not written out]RTVAAPDVLMTQTPLSLPVTPGEPASISCTSSQNIVHSNGNTYLEWYLQKPGQSPQLLIYKVSNRFSGVPDRFSGSGSGTDFTLKISRVEAEDVGVYYCFQVSHVPYTFGGGTKVEIKR
EC50 ([1]; PGE2 VD in C-terminal position, read-out: C-terminal VD PGE2 Neutralization EC50): 0.025 nM | EC50 ([2]; PGE2 VD in C-terminal position, read-out: Direct Bind ELISA C-terminal VD EC50): 1.55 nM
